Test results taken from patent US11498899B2, “Nitrone herbicides” (FMC Corporation, priority 2016, dated 2022).

Tested on: sedge, umbrella (small-flower umbrella sedge, Cyperus difformis)
Experiment: Test B flooded paddy test, visual rating 0-100
Conditions: Flood, 250 g ai/ha, applied to paddy water, rated after 13 to 15 days

SMILES	Sedge, Umbrella plant response rating (0 to 100 scale)
CC1=[N+]([O-])[C@@H](C(=O)Nc2cccc(F)c2F)[C@H](c2cccc(Oc3ccc(F)cn3)c2)C1 [Compound 84]	0
CC1=[N+]([O-])[C@@H](C(=O)Nc2cccc(F)c2F)[C@H](c2ccc(Cl)cc2)C1 (relative stereo) [Compound 5, trans-3-(4-chlorophenyl)-N-(2,3-difluorophenyl)-3,4-dihydro-5-methyl-2H-pyrrole-2-carboxamide 1-oxide]	0
CC1=[N+]([O-])C(C(=O)Nc2cccc(F)c2F)C(c2ccc(=O)n(Cc3ccc(Cl)cc3)c2)C1 (racemic) [Compound 119]	0
CC1=[N+]([O-])C(C(=O)Nc2cccc(F)c2F)C(c2cccc(Oc3ccc(F)cc3)c2)C1 (racemic) [Compound 58]	0
CC1=[N+]([O-])C(C(=O)Nc2ccccc2C(F)(F)F)C(c2ccc(C(F)(F)F)cc2)C1 (racemic) [Compound 33]	0
CC1=[N+]([O-])C(C(=O)Nc2cccc(F)c2F)C(c2ccccc2)C1 (stereo not drawn) [Compound 97]	0
CC1=[N+]([O-])C(C(=O)Nc2cccc(F)c2F)C(c2ccc(F)c(Oc3ccc(F)cn3)c2)C1 (racemic) [Compound 48]	0
CC1=[N+]([O-])C(C(=O)Nc2cccc(F)c2F)C(c2cccc(Oc3ncc(Cl)cn3)c2)C1 (racemic) [Compound 115]	0
CC1=[N+]([O-])[C@@H](C(=O)Nc2cccc(F)c2F)[C@H](c2cccc(OC(C)(C)C)c2)C1 [Compound 69]	0
CC1=[N+]([O-])C(C(=O)Nc2ccncc2C(F)(F)F)C(c2ccc(C(F)(F)F)cc2)C1 (racemic) [Compound 36]	0
CC1=[N+]([O-])[C@H](C(=O)Nc2cccc(F)c2F)[C@@H](c2ccc(C(F)F)cc2)C1 (relative stereo) [Compound 93, rel-(2S,3R)-3-(4-Difluoromethyl)phenyl)-N-(2,3-difluorophenyl) 3,4-dihydro-5-methyl-2H-pyrrole-2-carboxamide 1-oxide]	0
CC1=[N+]([O-])C(C(=O)Nc2cccc(F)c2F)C(c2cccc(F)c2C)C1 (racemic) [Compound 78]	15
CC1=[N+]([O-])[C@@H](C(=O)Nc2ccccc2F)[C@H](c2ccc(C(F)(F)F)cc2)C1 (relative stereo) [Compound 26, trans-N-(2-fluorophenyl)-3,4-dihydro-5-methyl-3-[4-(trifluoromethyl)phenyl]-2H-pyrrole-2-carboxamide 1-oxide]	0
CC1=[N+]([O-])C(C(=O)Nc2cccc(F)c2F)C(c2ccc(Cl)c(C(F)(F)F)c2)C1 (racemic) [Compound 104]	0
CC1=[N+]([O-])C(C(=O)Nc2cccc(F)c2F)C(c2ccc(C(F)(F)F)cc2F)C1 (stereo not drawn) [Compound 101]	0
CC1=[N+]([O-])C(C(=O)Nc2cccc(F)c2F)C(c2ccc(F)c(Oc3ccc(Cl)nc3)c2)C1 (racemic) [Compound 51]	0
CC1=[N+]([O-])C(C(=O)Nc2cccc(F)c2F)C(c2ccc3c(c2)OCO3)C1 (racemic) [Compound 4]	0
COc1cccc(C2CC(C)=[N+]([O-])C2C(=O)Nc2cccc(F)c2F)n1 (racemic) [Compound 67]	0
CC1=[N+]([O-])C(C(=O)Nc2cccc(F)c2F)C(c2ccc(C)c(Cl)c2)C1 (racemic) [Compound 72]	0
CC(C)C1=[N+]([O-])C(C(=O)Nc2cccc(F)c2F)C(c2ccc(C(F)(F)F)cc2)C1 (racemic) [Compound 122]	0
CC1=[N+]([O-])C(C(=O)Nc2cccc(F)c2F)C(c2ccc(F)cc2Oc2ncc(F)cn2)C1 (racemic) [Compound 68]	0
CC1=[N+]([O-])C(C(=O)Nc2cccc(F)c2F)C(c2cc(C)nc(OC(F)F)c2)C1 (racemic) [Compound 83]	15
CC1=[N+]([O-])[C@H](C(=O)Nc2cccc(F)c2F)[C@@H](c2ccc(C)cc2)C1 (relative stereo) [Compound 6, rel-(2S,3R)—N-(2,3-Difluorophenyl)-3,4-dihydro-5-methyl-3-(4-methylphenyl)-2H-pyrrole-2-carboxamide 1-oxide]	0
CC1=[N+]([O-])C(C(=O)Nc2cccc(F)c2F)C(c2cccc(Cl)c2)C1 (racemic) [Compound 3]	0
CC1=[N+]([O-])[C@H](C(=O)Nc2cccc(F)c2F)[C@@H](c2ccc(C(F)(F)F)cc2)C1 [Compound 30, (2S,3R)—N-(2,3-difluorophenyl)-3,4-dihydro-5-methyl-3-[4-(trifluoromethyl)phenyl]-2H-pyrrole-2-carboxamide 1-oxide]	0
CC1=[N+]([O-])C(C(=O)Nc2cccc(F)c2F)C(c2cc(C)cc(Cl)c2)C1 (stereo not drawn) [Compound 94]	0

SMILES	Sedge, Umbrella plant response rating (0 to 100 scale)
CC1=[N+]([O-])C(C(=O)Nc2cccc(F)c2F)C(c2ccc(C(F)(F)F)c(Cl)c2)C1 (racemic) [Compound 102]	0
CC1=[N+]([O-])C(C(=O)Nc2cccc(F)c2F)C(c2cccc(Cl)c2C)C1 (racemic) [Compound 117]	0
CC1=[N+]([O-])C(C(=O)Nc2cccc(F)c2F)C(c2cccc(C(F)(F)F)c2C)C1 (racemic) [Compound 106]	0
CC1=[N+]([O-])[C@H](C(=O)Nc2cccc(F)c2F)[C@@H](c2ccc(C)cc2)C1 [Compound 42, (2S,3R)—N-(2,3-Difluorophenyl)-3,4-dihydro-5-methyl-3-(4-methylphenyl)-2H-pyrrole-2-carboxamide 1-oxide]	0
CC1=[N+]([O-])[C@@H](C(=O)Nc2cccc(F)c2F)[C@H](c2cccc(Oc3ncc(F)cc3F)c2)C1 [Compound 70]	0
CC1=[N+]([O-])C(C(=O)Nc2cccc(F)c2F)C(c2cccc(F)c2)C1 (racemic) [Compound 8]	0
CCC1=[N+]([O-])C(C(=O)Nc2cccc(F)c2F)C(c2ccc(C(F)(F)F)cc2)C1 (racemic) [Compound 120]	0
CC1=[N+]([O-])C(C(=O)Nc2cccc(F)c2F)C(c2ccc(C(F)(F)F)c(C)c2)C1 (racemic) [Compound 87]	60
CC1=[N+]([O-])C(C(=O)Nc2cccc(F)c2F)C(c2ccc(Br)cc2)C1 (racemic) [Compound 20]	0
COc1cc(C)cc(C2CC(C)=[N+]([O-])C2C(=O)Nc2cccc(F)c2F)c1 (stereo not drawn) [Compound 91]	0
CC1=[N+]([O-])C(C(=O)Nc2cccc(F)c2F)C(c2ccc(C)c(C)c2)C1 (racemic) [Compound 24]	0
CC1=[N+]([O-])C(C(=O)Nc2cccc(F)c2F)C(c2cc(F)c(F)c(Oc3ncc(F)cn3)c2)C1 (racemic) [Compound 85]	0
CC1=[N+]([O-])C(C(=O)Nc2cccc(F)c2F)C(c2ccc(C(F)(F)F)c(Br)c2)C1 (racemic) [Compound 73]	0
CC1=[N+]([O-])C(C(=O)Nc2ccccc2)C(c2ccc(F)c(F)c2)C1 (racemic) [Compound 17]	0
CC1=[N+]([O-])[C@H](C(=O)Nc2cccc(F)c2F)[C@@H](c2ccc3c(c2)OC(F)(F)O3)C1 (relative stereo) [Compound 25, rel-(2S,3R)-3-(2,2-Difluoro-1,3-benzodioxol-5-yl)-N-(2,3-difluorophenyl)-3,4-dihydro-5-methyl-2H-pyrrole-2-carboxamide 1-oxide]	0
CC1=[N+]([O-])C(C(=O)Nc2cccc(F)c2Cl)C(c2ccc(C(F)(F)F)cc2)C1 (racemic) [Compound 31]	0
CC1=[N+]([O-])C(C(=O)Nc2cccc(F)c2F)C(c2cccc(C#N)c2)C1 (racemic) [Compound 23]	0
COc1cc(OC)cc(C2CC(C)=[N+]([O-])C2C(=O)Nc2cccc(F)c2F)c1 (stereo not drawn) [Compound 96]	0
CC1=[N+]([O-])C(C(=O)Nc2cccc(F)c2F)C(c2ccc(F)c(C(F)(F)F)c2)C1 (racemic) [Compound 64]	0
CC1=[N+]([O-])C(C(=O)Nc2cccc(F)c2F)C(c2cccc3c2CCC3)C1 (racemic) [Compound 118]	0
CC1=[N+]([O-])C(C(=O)Nc2cccc(F)c2F)C(c2cc(C)cc(C)c2)C1 (racemic) [Compound 112]	0
CC1=[N+]([O-])[C@H](C(=O)Nc2ccc(F)nc2F)[C@@H](c2ccc(C(F)(F)F)cc2)C1 (relative stereo) [Compound 37, rel-(2S,3R)—N-(2,6-Difluoro-3-pyridinyl)-3,4-dihydro-5-methyl-3-[4-(trifluoromethyl)phenyl]-2H-pyrrole-2-carboxamide 1-oxide]	0
CC1=[N+]([O-])C(C(=O)Nc2cccc(F)c2F)C(c2cccc(Oc3ccc(Cl)cn3)c2)C1 (racemic) [Compound 56]	0
CC1=[N+]([O-])C(C(=O)Nc2cccc(F)c2F)C(c2cccc(Br)n2)C1 (racemic) [Compound 65]	15
CC1=[N+]([O-])[C@H](C(=O)Nc2cccc(F)c2F)[C@@H](c2ccc(Cl)cc2)C1 [Compound 40, (2S,3R)-3-(4-chlorophenyl)-N-(2,3-difluorophenyl)-3,4-dihydro-5-methyl-2H-pyrrole-2-carboxamide 1-oxide]	0
